# Source: the supplement of paper PMC8728848
# The other results are listed elsewhere or left out.
# Tests used:
# Assay in all cases: glycan array binding signal (z-score within array); higher = stronger binding
# Details in all cases: glycan notation: IUPAC condensed, linker removed
# [1] = molecular target: Neu5Ac(a2-3)Gal(b1-3)GlcNAc(b1-2)Man
# Procedure, shortened: (§1)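 Columns mapping to the same glycan were averaged after glycan names were converted to IUPAC-condensed notation. The data come from 3228 arrays in the Consortium for Functional Glycomics database, limited to those with an available protein sequence. Binding is reported as a within-array Z-score averaged across arrays of one protein sequence and across linkers.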
# [2] = molecular target: Neu5Ac(a2-3)Gal(b1-3)GlcNAc(b1-2)Man(a1-3)[GlcNAc(b1-4)][Neu5Ac(a2-3)Gal(b1-3)GlcNAc(b1-2)Man(a1-6)]Man(b1-4)GlcNAc(b1-4)GlcNAc
# Procedure, shortened: as §1
# [3] = molecular target: Neu5Ac(a2-3)Gal(b1-3)GlcNAc(b1-2)Man(a1-3)[Neu5Ac(a2-3)Gal(b1-3)GlcNAc(b1-2)Man(a1-6)]Man(b1-4)GlcNAc(b1-4)GlcNAc
# Procedure, shortened: as §1
# [4] = molecular target: Neu5Ac(a2-3)Gal(b1-3)GlcNAc(b1-2)[Neu5Ac(a2-3)Gal(b1-3)GlcNAc(b1-4)]Man(a1-6)[Neu5Ac(a2-3)Gal(b1-3)GlcNAc(b1-2)Man(a1-3)]Man(b1-4)GlcNAc(b1-4)GlcNAc
# Procedure, shortened: as §1
# [5] = molecular target: Neu5Ac(a2-3)Gal(b1-3)GlcNAc(b1-3)Gal(b1-3)GlcNAc
# Procedure, shortened: as §1
# [6] = molecular target: Neu5Ac(a2-3)Gal(b1-3)GlcNAc(b1-3)Gal(b1-4)GlcNAc
# Procedure, shortened: as §1
# [7] = molecular target: Neu5Ac(a2-3)Gal(b1-3)GlcNAc(b1-3)GalNAc
# Procedure, shortened: as §1
# [8] = molecular target: Neu5Ac(a2-3)Gal(b1-3)GlcNAc(b1-6)GalNAc
# Procedure, shortened: as §1
# [9] = molecular target: Neu5Ac(a2-3)Gal(b1-3)GlcNAc6S
# Procedure, shortened: as §1
# [10] = molecular target: Neu5Ac(a2-3)Gal(b1-3)[Fuc(a1-4)]GlcNAc
# Procedure, shortened: as §1
# [11] = molecular target: Neu5Ac(a2-3)Gal(b1-3)[Fuc(a1-4)]GlcNAc(b1-3)Gal(b1-3)[Fuc(a1-4)]GlcNAc
# Procedure, shortened: as §1
# [12] = molecular target: Neu5Ac(a2-3)Gal(b1-3)[Fuc(a1-4)]GlcNAc(b1-3)Gal(b1-4)[Fuc(a1-3)]GlcNAc
# Procedure, shortened: as §1
# [13] = molecular target: Neu5Ac(a2-3)Gal(b1-3)[GlcNAc(b1-6)]GalNAc
# Procedure, shortened: as §1
# [14] = molecular target: Neu5Ac(a2-3)Gal(b1-3)[Neu5Ac(a2-6)]GalNAc
# Procedure, shortened: as §1
# [15] = molecular target: Neu5Ac(a2-3)Gal(b1-3)[Neu5Ac(a2-6)]GlcNAc(b1-3)[Fuc(a1-3)[Gal(b1-4)]GlcNAc(b1-6)]Gal(b1-4)Glc
# Procedure, shortened: as §1
# [16] = molecular target: Neu5Ac(a2-3)Gal(b1-3)]Neu5Ac(a2-3)Gal(b1-4)]GlcNAc
# Procedure, shortened: as §1
# Neu5Ac(a2-3)Gal(b1-4)Glc = molecular target: Neu5Ac(a2-3)Gal(b1-4)Glc
# Procedure, shortened: as §1
# [17] = molecular target: Neu5Ac(a2-3)Gal(b1-4)GlcNAc
# Procedure, shortened: as §1
# [18] = molecular target: Neu5Ac(a2-3)Gal(b1-4)GlcNAc(b1-2)Man
# Procedure, shortened: as §1
# [19] = molecular target: Neu5Ac(a2-3)Gal(b1-4)GlcNAc(b1-2)Man(a1-3)[GlcNAc(b1-4)][Neu5Ac(a2-3)Gal(b1-4)GlcNAc(b1-2)Man(a1-6)]Man(b1-4)GlcNAc(b1-4)GlcNAc
# Procedure, shortened: as §1
# [20] = molecular target: Neu5Ac(a2-3)Gal(b1-4)GlcNAc(b1-2)Man(a1-3)[Neu5Ac(a2-3)Gal(b1-4)GlcNAc(b1-2)Man(a1-6)]Man(b1-4)GlcNAc(b1-4)GlcNAc
# Procedure, shortened: as §1
# [21] = molecular target: Neu5Ac(a2-3)Gal(b1-4)GlcNAc(b1-2)Man(a1-3)[Neu5Ac(a2-3)Gal(b1-4)GlcNAc(b1-2)Man(a1-6)]Man(b1-4)GlcNAc(b1-4)[Fuc(a1-6)]GlcNAc
# Procedure, shortened: as §1
# [22] = molecular target: Neu5Ac(a2-3)Gal(b1-4)GlcNAc(b1-2)Man(a1-3)[Neu5Ac(a2-6)Gal(b1-4)GlcNAc(b1-2)Man(a1-6)]Man(b1-4)GlcNAc(b1-4)GlcNAc
# Procedure, shortened: as §1
# [23] = molecular target: Neu5Ac(a2-3)Gal(b1-4)GlcNAc(b1-2)[Neu5Ac(a2-3)Gal(b1-4)GlcNAc(b1-4)]Man(a1-3)[GlcNAc(b1-4)][Neu5Ac(a2-3)Gal(b1-4)GlcNAc(b1-2)[Neu5Ac(a2-3)Gal(b1-4)GlcNAc(b1-6)]Man(a1-6)]Man(b1-4)GlcNAc(b1-4)GlcNAc
# Procedure, shortened: as §1
# [24] = molecular target: Neu5Ac(a2-3)Gal(b1-4)GlcNAc(b1-2)[Neu5Ac(a2-3)Gal(b1-4)GlcNAc(b1-4)]Man(a1-3)[GlcNAc(b1-4)][Neu5Ac(a2-3)Gal(b1-4)GlcNAc(b1-4)Man(a1-6)]Man(b1-4)GlcNAc(b1-4)GlcNAc
# Procedure, shortened: as §1
# [25] = molecular target: Neu5Ac(a2-3)Gal(b1-4)GlcNAc(b1-2)[Neu5Ac(a2-3)Gal(b1-4)GlcNAc(b1-6)]Man(a1-6)[Neu5Ac(a2-3)Gal(b1-4)GlcNAc(b1-2)Man(a1-3)][GlcNAc(b1-4)]Man(b1-4)GlcNAc(b1-4)GlcNAc
# Procedure, shortened: as §1
# [26] = molecular target: Neu5Ac(a2-3)Gal(b1-4)GlcNAc(b1-3)Gal
# Procedure, shortened: as §1
# [27] = molecular target: Neu5Ac(a2-3)Gal(b1-4)GlcNAc(b1-3)Gal(b1-3)GlcNAc
# Procedure, shortened: as §1
# [28] = molecular target: Neu5Ac(a2-3)Gal(b1-4)GlcNAc(b1-3)Gal(b1-4)GlcNAc
# Procedure, shortened: as §1
# [29] = molecular target: Neu5Ac(a2-3)Gal(b1-4)GlcNAc(b1-3)Gal(b1-4)GlcNAc(b1-2)Man(a1-3)[Neu5Ac(a2-3)Gal(b1-4)GlcNAc(b1-3)Gal(b1-4)GlcNAc(b1-2)Man(a1-6)]Man(b1-4)GlcNAc(b1-4)GlcNAc
# Procedure, shortened: as §1
# [30] = molecular target: Neu5Ac(a2-3)Gal(b1-4)GlcNAc(b1-3)Gal(b1-4)GlcNAc(b1-3)Gal(b1-4)GlcNAc
# Procedure, shortened: as §1
# [31] = molecular target: Neu5Ac(a2-3)Gal(b1-4)GlcNAc(b1-3)Gal(b1-4)GlcNAc(b1-3)Gal(b1-4)GlcNAc(b1-2)Man(a1-3)[Neu5Ac(a2-3)Gal(b1-4)GlcNAc(b1-3)Gal(b1-4)GlcNAc(b1-3)Gal(b1-4)GlcNAc(b1-2)Man(a1-6)]GalNAc
# Procedure, shortened: as §1
# [32] = molecular target: Neu5Ac(a2-3)Gal(b1-4)GlcNAc(b1-3)Gal(b1-4)GlcNAc(b1-3)GalNAc
# Procedure, shortened: as §1
# [33] = molecular target: Neu5Ac(a2-3)Gal(b1-4)GlcNAc(b1-3)Gal(b1-4)GlcNAc(b1-3)[Neu5Ac(a2-3)Gal(b1-4)GlcNAc(b1-3)Gal(b1-4)GlcNAc(b1-6)]GalNAc
# Procedure, shortened: as §1
# [34] = molecular target: Neu5Ac(a2-3)Gal(b1-4)GlcNAc(b1-3)Gal(b1-4)GlcNAc(b1-6)[Gal(b1-3)]GalNAc
# Procedure, shortened: as §1
# [35] = molecular target: Neu5Ac(a2-3)Gal(b1-4)GlcNAc(b1-3)Gal(b1-4)[Fuc(a1-3)]GlcNAc
# Procedure, shortened: as §1
# [36] = molecular target: Neu5Ac(a2-3)Gal(b1-4)GlcNAc(b1-3)GalNAc
# Procedure, shortened: as §1
# [37] = molecular target: Neu5Ac(a2-3)Gal(b1-4)GlcNAc(b1-3)[Neu5Ac(a2-3)Gal(b1-4)GlcNAc(b1-6)]GalNAc
# Procedure, shortened: as §1
binder,measurement,setting,value
Clec49 (Caenorhabditis elegans) (protein) MTRLTLLLFGLLGAATAQTCNTGGIYNEQFNRCYQYFTAPAQFSFAEQQCNLLGGHLASVQNGQENALLQSNAANSFKRSNYSDYWIGATDLETSGTWKWTDPSVTFDYSNWQLGEPQSGSDCAIQDKGDGTWSAIGCTSYRPYVCVTPVIMTATCPPITTPIPTTCPTPAPCPIKQCVPSCDQGWTYFSPTDFCYRVYHGEKFNDAEASCVLLGGHLASIHSLTENTFVNNIASCGIKEGKYEHLAWIGMRKVGQDWVWTDGTPSDYFNWAPKQPDNPKKELCVQTAPDLSHDKWYENWNNLECNEVMRAYICKKASIHN,glycan array binding signal (z-score),[1],-0.287
same,glycan array binding signal (z-score),[2],-0.415
same,glycan array binding signal (z-score),[3],0.787
same,glycan array binding signal (z-score),[4],3.69
same,glycan array binding signal (z-score),[5],-1.14
same,glycan array binding signal (z-score),[6],-0.518
same,glycan array binding signal (z-score),[7],-0.541
same,glycan array binding signal (z-score),[8],-0.227
same,glycan array binding signal (z-score),[9],-0.159
same,glycan array binding signal (z-score),[10],-0.716
same,glycan array binding signal (z-score),[11],-0.342
same,glycan array binding signal (z-score),[12],1.08
same,glycan array binding signal (z-score),[13],-0.809
same,glycan array binding signal (z-score),[14],0.05
same,glycan array binding signal (z-score),[15],-0.325
same,glycan array binding signal (z-score),[16],-0.673
same,glycan array binding signal (z-score),Neu5Ac(a2-3)Gal(b1-4)Glc,-0.49
same,glycan array binding signal (z-score),[17],0.054
same,glycan array binding signal (z-score),[18],0.346
same,glycan array binding signal (z-score),[19],-0.138
same,glycan array binding signal (z-score),[20],-0.055
same,glycan array binding signal (z-score),[21],-0.426
same,glycan array binding signal (z-score),[22],-0.439
same,glycan array binding signal (z-score),[23],-0.218
same,glycan array binding signal (z-score),[24],0.389
same,glycan array binding signal (z-score),[25],0.886
same,glycan array binding signal (z-score),[26],-0.364
same,glycan array binding signal (z-score),[27],-0.409
same,glycan array binding signal (z-score),[28],-0.208
same,glycan array binding signal (z-score),[29],2.19
same,glycan array binding signal (z-score),[30],-0.309
same,glycan array binding signal (z-score),[31],5.23
same,glycan array binding signal (z-score),[32],-0.065
same,glycan array binding signal (z-score),[33],0.317
same,glycan array binding signal (z-score),[34],-0.585
same,glycan array binding signal (z-score),[35],-0.36
same,glycan array binding signal (z-score),[36],0.315
same,glycan array binding signal (z-score),[37],0.343
